Data from PubChem BioAssay AID1240 (Sanford-Burnham Center for Chemical Genomics, 2008).
Screen size: about 50,000 compounds; about 800 (1.6%) showed an effect of 50% or more. The list shows a part of the results.

Target: Bcl-2-like protein 10 (Homo sapiens) (UniProt Q9HD36)
Test: TR3 peptide-Bcl-B binding displacers, biochemical primary FP assay, phenotype converters (AID 1240);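 further: 0% = Bcl-B with tracer peptide and DMSO and 100% = tracer peptide lacking Bcl-B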
Conditions: GST-Bcl-B / FITC-TR3 peptide fluorescence polarization; stronger effect = higher value; compound at 3.75 mg/L

Sequence of UniProt Q9HD36 (Q9HD36 whole entry, looked up): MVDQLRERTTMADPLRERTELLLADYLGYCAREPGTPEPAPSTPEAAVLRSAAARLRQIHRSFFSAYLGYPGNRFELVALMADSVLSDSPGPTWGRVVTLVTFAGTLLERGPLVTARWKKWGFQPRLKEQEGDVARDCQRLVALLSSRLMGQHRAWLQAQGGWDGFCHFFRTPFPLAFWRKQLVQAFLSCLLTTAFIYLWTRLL

Compound	displacement [%]
CC1CCc2cc(F)ccc2N1C(=O)c1ccc(Cl)c(Cl)c1 (stereo not given)	-2.2
CN(C)/C=C1\N=C(c2ccccc2Br)OC1=O	-1.7
Cc1ccc(NC(=O)COc2ccc(Cl)cc2Cl)cc1N(C)C	7.8
O=C(COc1ccccc1Cl)NNC(=O)c1cccnc1	-18.1
O=C1c2ccccc2NC(c2ccc(Cl)c(Cl)c2)N1Cc1ccccc1 (stereo not given)	15.9
Cc1nc2c(c(C)nn2-c2ccccc2)c(C)c1C	-12.2
Cc1cnn(-c2cc(C(F)(F)F)nc(-c3ccccc3)n2)c1	-8.4
COc1cc(/C=C2/SC(=S)N(CC(=O)NCCCN3CCOCC3)C2=O)cc(OC)c1OC	15
COc1ccc(C2CC(c3ccccc3)=NN2c2ccccc2OC)cc1 (stereo not given)	8.8
CC(C)(C)c1ccc(C(=O)Oc2ccc(/C=N/O)cc2)cc1	1.4
Cc1ccc(-n2nc3cc(C)c(NC(=O)Cc4ccccc4)cc3n2)cc1	3.7
Cc1cc(NC(=O)c2ccco2)ccc1NC(=O)c1ccccc1	-2.1
CCOC(=O)c1c(NC(=O)c2cc(OC)cc(OC)c2)sc(C)c1CC	20.4
CCN(CC)CCCCCOc1cc(C)cc(C)c1C	-8.7
CCOC(=O)CC(=O)Nc1nc2ccc(Br)cc2s1	4.4
O=S(=O)(NCCSc1nc2ccccc2o1)c1ccccc1	15.1
CC1=NNC(=O)C1CC(=O)N/N=C/c1cc(Br)ccc1O (stereo not given)	-21.5
O=[N+]([O-])c1ccc(Cl)c(/C=N/N2CCN(c3ccccc3)CC2)c1	8.4
Cc1ccc(/C(O)=C2\C(=O)C(=O)N(c3nncs3)C2c2cccc([N+](=O)[O-])c2)cc1 (stereo not given)	10.3
O=[N+]([O-])c1cccc(CONc2ncnc3nonc23)c1	7.5
O=C(O)c1ccc(N2C(=O)CC(N3CCC(Cc4ccccc4)CC3)C2=O)cc1 (stereo not given)	2.8
Clc1ccccc1COc1cccc(/C=N/Nc2nc(N3CCOCC3)nc(N3CCOCC3)n2)c1	2.6
CC(C)Nc1nc(-c2ccc(Cl)cc2Cl)nc2ccccc12	-20.1
Cc1ccc(S(=O)(=O)/N=C2/NC(=O)/C(=C/c3cc([N+](=O)[O-])ccc3O)S2)cc1	-17.6
Cc1cc(NC(=O)c2ccc(C(=O)Nc3cc(C)c(O)c(C)c3)cc2)cc(C)c1O	-2.3
O=C(O)CCP(=O)(O)C(O)c1ccccc1 (stereo not given)	11.4
CC(=O)Nc1ccc(N2Cc3ccccc3C2)cc1	-4.7
CCOc1cc(C2NC(=O)NC(C)=C2C(=O)Nc2ccc(Cl)cc2)ccc1O (stereo not given)	-6.2
CCOC(=O)c1ccc(-c2ccc(/C=C3/C(=O)NN(c4ccc(F)cc4)C3=O)o2)cc1	-3.3
CC1=CC(C)(C)N(C(=O)CN2C(=O)CCC2=O)c2ccccc21	-2.3
